# In PubChem BioAssay AID588591 (National Center for Advancing Translational Sciences (NCATS), 2011):
# In all, about 390,000 compounds went through this assay and about 4,700 (1.2%) were called active. This list was built around the results that the source calls inconclusive (neither active nor inactive); the mix of calls is not that of the screen. Calls come from the whole dose curve; as a rule, active = well fitted inhibition curve with a large enough effect; inconclusive = small, poorly fitted or top-dose-only effect, or another doubt; inactive = no such curve, though single readings can be large or run the other way. Potencies of inconclusive entries are doubtful fits and often do not repeat.
# Molecular target: DNA polymerase eta (Homo sapiens) (UniProt Q9Y253)
# Experiment: qHTS for Inhibitors of Polymerase Eta
# Details: recombinant Pol eta, fluorescent DNA replication assay; series mostly up to 114 µM
# Method in brief: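 Pol eta (10 nM) was preincubated with compounds for 15 min at room temperature, after which fluorescent replication substrate (50 nM final) was added to start the reaction. Fluorescence was read kinetically at 0 and 10 min.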
# Potency is the fitted concentration of half-maximal effect; tags give direction and shape of the fitted curve.
# Chain of UniProt Q9Y253 (Q9Y253 whole entry, looked up): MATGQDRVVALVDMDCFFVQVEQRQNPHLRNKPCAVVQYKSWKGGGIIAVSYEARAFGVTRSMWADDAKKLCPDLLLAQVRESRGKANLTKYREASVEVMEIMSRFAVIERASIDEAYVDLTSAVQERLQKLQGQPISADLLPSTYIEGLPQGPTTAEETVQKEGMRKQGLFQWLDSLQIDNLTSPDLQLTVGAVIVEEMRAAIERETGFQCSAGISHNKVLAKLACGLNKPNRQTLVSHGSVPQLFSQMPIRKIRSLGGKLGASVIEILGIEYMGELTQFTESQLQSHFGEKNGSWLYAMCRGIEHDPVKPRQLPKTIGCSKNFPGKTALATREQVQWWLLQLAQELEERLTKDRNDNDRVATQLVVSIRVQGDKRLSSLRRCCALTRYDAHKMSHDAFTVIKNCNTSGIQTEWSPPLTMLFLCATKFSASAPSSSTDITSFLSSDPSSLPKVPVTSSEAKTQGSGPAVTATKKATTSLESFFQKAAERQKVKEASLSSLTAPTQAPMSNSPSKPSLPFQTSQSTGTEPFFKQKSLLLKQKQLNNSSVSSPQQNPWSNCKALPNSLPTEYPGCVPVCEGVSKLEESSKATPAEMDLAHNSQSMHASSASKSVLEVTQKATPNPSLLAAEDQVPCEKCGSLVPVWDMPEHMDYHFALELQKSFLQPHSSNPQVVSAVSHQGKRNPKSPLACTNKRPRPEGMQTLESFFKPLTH
row,SMILES,Potency
1,O=S(=O)(O)c1ccc(NN=Cc2ccccc2O)cc1,active: 31.6 µM
2,Cc1cc(C(=O)COC(=O)Cc2ccc(Cl)cc2)c(C)n1C,"inconclusive: 11.2 µM [inhibitor, partial curve]"
3,Cc1ccn2cc(-c3ccc(O)c(O)c3)nc2c1,active: 22.4 µM
4,Cn1c(=O)[nH]c(=O)c2c1nc(N1CCCCCC1)n2CCCSc1nc2ccccc2o1,"inconclusive: 35.5 µM [inhibitor, partial curve, poor fit]"
5,O=C(CSc1nc2ccccc2[nH]1)NC(=O)NCc1ccco1,"inconclusive: 25.1 µM [inhibitor, single point]"
6,Cc1ccc(C)c(NC(=O)CCc2nnc3ccc(NCc4ccco4)nn23)c1,"inconclusive: 35.5 µM [inhibitor, single point]"
7,COc1ccc(C(CC(=O)N2CCCC(C)C2)c2c(OC)cc(OC)c3c(-c4ccccc4)cc(=O)oc23)cc1 (centres undefined),active: 25.1 µM
8,CN(C)c1ccc(C(CNS(=O)(=O)c2ccc(F)cc2)N2CCCC2)cc1 (centres undefined),inactive
9,Cc1ccc(N(Cc2cc(=O)[nH]c3ccccc23)C(=O)CCl)c(C)c1,"inconclusive: 17.8 µM [inhibitor, partial curve, poor fit]"
10,O=C(Cn1cnc2c(nnn2Cc2ccc(Cl)cc2)c1=O)OCc1ccccc1,inactive
11,CCc1nc(N=Nc2c(O)[nH]c3ccccc23)c2c3c(sc2n1)CCC3,"inconclusive: 10 µM [inhibitor, full curve, poor fit]"
12,CCOc1ccccc1NC(=O)CSc1ncc(S(=O)(=O)c2ccc(C(C)(C)C)cc2)c(=O)[nH]1,active: 89.1 µM
13,Cc1ccc(NC(=O)CCNS(=O)(=O)c2ccc3c(c2)CCN3C(=O)C2CC2)c(Cl)c1,inactive
14,CN(C)c1cc(Cl)c2nonc2c1N,active: 79.4 µM
15,CC1(CC(=O)N/N=C/c2ccc(-c3ccc(C(=O)O)cc3)o2)OCCO1,inactive
16,Cc1cccc(-n2c(N)c(C(=O)NCCN3CCOCC3)c3nc4ccccc4nc32)c1,"inconclusive: 20 µM [inhibitor, partial curve, poor fit]"
17,CC(C)CCN(C(=S)Nc1cccc(C(F)(F)F)c1)C(C)c1ccccn1 (centres undefined),"inconclusive: 89.1 µM [inhibitor, single point]"
18,Cc1ccc(NC(=O)NCC2CCN(Cc3cccc(Cl)c3)CC2)cc1Cl,"inconclusive: 89.1 µM [inhibitor, partial curve, poor fit]"
19,CC(=O)CS(=O)(=O)c1ccc(Oc2ccc(S(=O)(=O)CC(C)=O)cc2)cc1,"inconclusive: 2.82 µM [inhibitor, partial curve, poor fit]"
20,N#C/C(=C\c1cccc(Cl)c1)C(=O)c1ccccc1,"inconclusive: 44.7 µM [inhibitor, partial curve]"
21,O=C(CSc1nc2ccccc2nc1Cc1ccc(Cl)cc1)N1CCN(c2ccccc2F)CC1,inactive
22,Cc1ccc(OCCNC(=O)c2ccc(COc3ccccc3)o2)cc1,"inconclusive: 89.1 µM [inhibitor, partial curve, poor fit]"
23,O=C(O)c1cc(O)c2c(c1)C(=O)c1cccc(O)c1C2=O,active: 50.1 µM

row,SMILES,Potency
1,O=C1C=CC(=O)N1c1ccc(OC(F)F)cc1,inactive
2,COc1ccc(-c2nc3ccc(C)cn3c2NCc2ccccc2)cc1SC1CCCCC1,active: 44.7 µM
3,O=C(CN1c2cccc3cccc(c23)S1(=O)=O)N1CCN(c2ccc(F)cc2)CC1,"inconclusive: 15.8 µM [inhibitor, full curve, poor fit]"
4,COc1cccc(-n2c(-c3ccco3)nc3c(cnn3-c3ccc(C)cc3)c2=O)c1,inactive
5,COC(=O)c1sc(N/N=C/c2ccc(C(C)C)cc2)nc1C,"inconclusive: 44.7 µM [inhibitor, partial curve, poor fit]"
6,Cc1cccc(NC(=O)CNC(=O)COc2ccc(C(=O)c3ccc(F)cc3)cc2)c1C,"inconclusive: 20 µM [inhibitor, partial curve]"
7,CCCCC(=O)Nc1ccc(C(=O)NNC(=O)CCCOc2ccc(Cl)cc2Cl)cc1,"inconclusive: 14.1 µM [inhibitor, partial curve, poor fit]"
8,O=C1CSC(=S)N1/N=C/c1ccc(O)c(O)c1O,active: 0.708 µM
9,COc1nc(Nc2nc3ccccc3c(=O)[nH]2)nc2ccc(C)cc12,"inconclusive: 3.55 µM [inhibitor, full curve, poor fit]"
10,Cc1cccc(Nc2nn3c(=O)c4cc5c(cc4nc3s2)OCO5)c1,inactive
11,Cc1ccccc1-n1c(SCC(=O)c2cc(C)n(C)c2C)nnc1-c1cccnc1,"inconclusive: 12.6 µM [inhibitor, partial curve, poor fit]"
12,COc1ccccc1C(=O)Nc1ccnn1C1CCN(Cc2ccccc2OCCO)CC1,inactive
13,Cc1coc2c(C)c3oc(=O)c(CCC(=O)N[C@@H](C)C(=O)N[C@@H](Cc4ccccc4)C(=O)O)c(C)c3cc12,active: 28.2 µM
14,O=c1c2ccccc2nc(-c2cccs2)n1-c1cccc2ccccc12,"inconclusive: 39.8 µM [inhibitor, single point]"
15,N#Cc1ccc(OCC(=O)Nc2nc(-c3ccccn3)cs2)cc1,active: 22.4 µM
16,C[C@@H](NC(=O)c1nc[nH]c1C(=O)NCC(=O)OCc1ccccc1)c1ccccc1,"inconclusive: 89.1 µM [inhibitor, partial curve, poor fit]"
17,O=C(COC(=O)c1ccccc1OCC(=O)Nc1ccc(Br)cc1)Nc1ccccc1,"inconclusive: 3.55 µM [inhibitor, full curve, poor fit]"
18,Cc1nc2cc(N3CCOCC3)c(NC(=O)C3CC3)cc2c(=O)n1Cc1ccccc1,active: 20 µM
19,Cc1cc(C)c(S(=O)(=O)/N=C2\C=C(Nc3ccc(C(=O)O)cc3)C(=O)c3ccccc32)c(C)c1,active: 11.2 µM
20,Cc1noc(C)c1S(=O)(=O)Nc1cccc(CO)c1,inactive
21,COC(=O)Cc1n[nH]c(=S)[nH]c1=O,"inconclusive: 89.1 µM [inhibitor, partial curve, poor fit]"
22,O=C(O)c1ccccc1NS(=O)(=O)c1ccc(N/N=C/c2ccc(O)c(O)c2)c([N+](=O)[O-])c1,active: 2.51 µM
23,CCOc1ccc(NC(=O)CSc2nnc(-c3ccco3)n2C)cc1,"inconclusive: 89.1 µM [inhibitor, single point]"

row,SMILES,Potency
1,CC1=NN(c2ccc(C)cc2)C(=O)/C1=C\c1ccc(Br)s1,"inconclusive: 35.5 µM [inhibitor, partial curve, poor fit]"
2,CC(C)NC(=O)c1cc(-c2ccco2)nn1-c1ccc(Cl)cc1,"inconclusive: 12.6 µM [inhibitor, partial curve]"
3,Cc1nnc(SCc2cc(=O)oc3ccc4ccccc4c23)n1Cc1ccccc1,"inconclusive: 20 µM [inhibitor, partial curve]"
4,NC1=NC(=O)/C(=C/c2cn(CCC(=O)O)nc2-c2ccc(F)cc2)S1,"inconclusive: 14.1 µM [inhibitor, full curve, poor fit]"
5,CC1CCn2c(nc3cc(C(=O)NCCc4ccccc4)ccc32)C1 (centres undefined),inactive
6,CCOC(=O)c1cc(-c2ccco2)nn1-c1ccc(C)cc1,"inconclusive: 89.1 µM [inhibitor, partial curve, poor fit]"
7,CC1=C(C)C(OCCCl)N(c2cc(O)c(Cl)cc2F)C1=O (centres undefined),inactive
8,Cc1nc(SCc2ccccc2Cl)c(C#N)c(C)c1C,inactive
9,CCS(=O)(=O)C1=NN2C(=N)/C(=C\c3ccc(SCc4ccco4)o3)C(=O)N=C2S1,active: 4.47 µM
10,CC(Nc1nc(-c2ccc(F)cc2)cs1)c1nc2cc(Cl)c(Cl)cc2n1CCCO (centres undefined),inactive
11,CCCn1cc(S(=O)(=O)c2ccccc2)c(=O)c2cc(F)c(N3CCCCCC3)cc21,inactive
12,Oc1ccc(N=C/C=C/c2cccc(Br)c2)cc1-c1nc2ccccc2s1,"inconclusive: 56.2 µM [inhibitor, partial curve, poor fit]"
13,COc1cc(OC)cc(C(=O)NCC(=O)N2CCC(C)CC2)c1,"inconclusive: 17.8 µM [inhibitor, partial curve, poor fit]"
14,CC(C)(C)c1ccc(-c2nc(SCCOc3ccc(Cl)cc3)n3[nH]c(=O)cc3n2)cc1,active: 50.1 µM
15,Cc1sc2nc(CSC(C)C(=O)Nc3ccc(C(N)=O)cc3)[nH]c(=O)c2c1C (centres undefined),"inconclusive: 35.5 µM [inhibitor, partial curve, poor fit]"
16,Cn1ncc(C#N)c1NC(=O)c1cc(-c2ccccc2Cl)on1,"inconclusive: 89.1 µM [inhibitor, partial curve, poor fit]"
17,Cc1[nH]c(=O)nc(SCc2ccc(Cl)c(Cl)c2)c1C#N,inactive
18,O=C(O)c1cccc(-n2cccc2/C=C2\NC(=O)N(Cc3ccc(F)cc3)C2=O)c1,active: 20 µM
19,Cc1ccc(C)c(NC(=S)NNC(=O)c2cc3c(s2)CCC(C)C3)c1 (centres undefined),"inconclusive: 79.4 µM [inhibitor, partial curve, poor fit]"
20,O=C(COc1cc(Cl)ccc1Cl)Nc1nnc(C2CC2)s1,"inconclusive: 89.1 µM [inhibitor, partial curve, poor fit]"
21,O=C(NNC(=O)C1C2C=CC(C2)C1C(=O)O)c1cc(Cl)ccc1O (centres undefined),inactive
22,Cc1ccc2c(c1)C(=O)C(=O)N2Cc1ccc(OCCC(C)C)cc1,"inconclusive: 28.2 µM [inhibitor, partial curve, poor fit]"
23,COc1ccc(NS(=O)(=O)c2ccc(C)cc2)c([N+](=O)[O-])c1,"inconclusive: 89.1 µM [inhibitor, partial curve, poor fit]"
